Legend:
Format in all cases: in vivo
[1] = system: Botrytis cinerea; test: Test Example B: Gray mold on tomato; conditions: gray mold on tomato, Botrytis cinerea; 250 ppm spray
Description: [Test Example B] Gray Mold on Tomato
Seeds of a test plant (tomato variety: Oogata Fukuju) were planted followed by cultivating until three to five first leaves (true leaves) appeared.

[2] = system: Blumeria graminis f sp. hordei; test: Test Example D: Powdery mildew on barley; conditions: powdery mildew on barley; 250 ppm spray
Description: [Test Example D] Powdery Mildew on Barley
After the sprayed dilutions were dried, conidia of Blumeria graminis f sp. hordei were inoculated to the plants by shaking off.

[3] = system: Puccinia recondita; test: Test Example E: Brown rust on wheat; conditions: brown rust on wheat, Puccinia recondita; 250 ppm spray
Description: [Test Example E] Brown Rust on Wheat

[4] = system: Alternaia brassicicola; test: Test Example C: Alternaria sooty spot on cabbage; conditions: Alternaria sooty spot on cabbage; 250 ppm spray
Description: [Test Example C] Alternaria Sooty Spot on Cabbage
Seeds of a test plant (cabbage variety: Shikidori) were planted followed by cultivating until the cotyledons extended.

[5] = system: Plasmopara viticola; test: Test Example G: Downy mildew on vine; conditions: downy mildew on vine, Plasmopara viticola; 250 ppm spray, 7-10 days after inoculation
Description: [Test Example G] Downy Mildew on Vine
Seeds of a test plant (grape variety: Neomuscat) were planted followed by cultivating until three to four first leaves appeared. […] After the sprayed dilutions were dried, a zoosporangia suspension (1-2×10^4 zoosporangia/ml) of Plasmopara viticola was inoculated to the plants by spraying.

| Compound | Test B (control value class) [1] | Test D (control value class) [2] | Test E (control value class) [3] | Test C (control value class) [4] | Test G (control value class) [5] |
| --- | --- | --- | --- | --- | --- |
| Cn1c(-c2c(F)cccc2F)c(-c2cccc(F)c2Cl)cc(Cl)c1=O [Compound 509] | H (H shows more than 50% of control values) | H (H shows more than 50% of control values) | H (H shows more than 50% of control values) | H (H shows more than 50% of control values) | H (H shows more than 50% of control values) |
| O=c1ccc(-c2cccc(F)c2Cl)c(-c2c(F)cccc2F)n1CC(F)F [Compound 510] | H (H shows more than 50% of control values) | H (H shows more than 50% of control values) | H (H shows more than 50% of control values) | H (H shows more than 50% of control values) | H (H shows more than 50% of control values) |
| O=c1c(Cl)cc(-c2cccc(F)c2Cl)c(-c2c(F)cccc2F)n1CC(F)F [Compound 511] | H (H shows more than 50% of control values) | H (H shows more than 50% of control values) | H (H shows more than 50% of control values) | H (H shows more than 50% of control values) | H (H shows more than 50% of control values) |
| CCn1c(-c2c(F)cccc2F)c(-c2cc(F)ccc2Cl)cc(F)c1=O [Compound 512] | H (H shows more than 50% of control values) | H (H shows more than 50% of control values) | H (H shows more than 50% of control values) | H (H shows more than 50% of control values) | H (H shows more than 50% of control values) |
| Cn1c(-c2c(F)cccc2F)c(-c2cc(F)ccc2Cl)cc(F)c1=O [Compound 513] | H (H shows more than 50% of control values) | H (H shows more than 50% of control values) | H (H shows more than 50% of control values) | H (H shows more than 50% of control values) | H (H shows more than 50% of control values) |
| CCN1C(=O)CCC(c2ccccc2F)=C1c1c(F)cc(F)cc1F [Compound 514] | H (H shows more than 50% of control values) | H (H shows more than 50% of control values) | H (H shows more than 50% of control values) | H (H shows more than 50% of control values) | L (L shows 50% or less of control values) |
| COc1cc(F)c(-c2c(-c3cccc(F)c3Cl)cc(C)c(=O)n2C)c(F)c1 [Compound 517] | H (H shows more than 50% of control values) | H (H shows more than 50% of control values) | H (H shows more than 50% of control values) | H (H shows more than 50% of control values) | H (H shows more than 50% of control values) |
| CCn1c(-c2c(F)cccc2F)c(-c2cccc(F)c2F)cc(Cl)c1=O [Compound 519] | H (H shows more than 50% of control values) | H (H shows more than 50% of control values) | H (H shows more than 50% of control values) | H (H shows more than 50% of control values) | L (L shows 50% or less of control values) |
| Cc1cc(-c2cccc(Cl)c2F)c(-c2c(F)cccc2F)n(CC(F)F)c1=O [Compound 521] | H (H shows more than 50% of control values) | H (H shows more than 50% of control values) | H (H shows more than 50% of control values) | H (H shows more than 50% of control values) | L (L shows 50% or less of control values) |
